Data: the supplement of paper PMC3334620
The full ranking holds about 33,000 sequences; the median of “E-score (-0.5 to 0.5)” is about -0.036, and the highest 2% start at about 0.37. This is one part of the list.

These sequences were tested against T1, Yer064c (UniProt P40041) (assay: PBM E-score (8-mer binding enrichment) (E-score (-0.5 to 0.5)); higher = stronger / more preferred TF binding; most listed sequences are background and not binding sites). Details: protein concentration: 200 nM; construct: GST-full length.
T1 sequence: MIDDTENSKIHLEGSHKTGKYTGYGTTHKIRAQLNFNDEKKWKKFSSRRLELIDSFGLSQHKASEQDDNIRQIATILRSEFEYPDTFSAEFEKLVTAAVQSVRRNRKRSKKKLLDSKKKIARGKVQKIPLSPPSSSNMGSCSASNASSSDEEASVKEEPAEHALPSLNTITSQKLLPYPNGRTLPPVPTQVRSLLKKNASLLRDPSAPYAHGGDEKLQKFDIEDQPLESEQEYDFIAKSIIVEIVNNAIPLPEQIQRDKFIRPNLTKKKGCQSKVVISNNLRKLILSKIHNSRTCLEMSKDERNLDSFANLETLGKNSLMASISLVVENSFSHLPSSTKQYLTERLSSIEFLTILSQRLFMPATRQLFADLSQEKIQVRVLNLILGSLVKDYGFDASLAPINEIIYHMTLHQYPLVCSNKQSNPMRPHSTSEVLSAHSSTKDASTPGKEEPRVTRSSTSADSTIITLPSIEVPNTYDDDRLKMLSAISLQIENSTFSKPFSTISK
How it was run: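 Masliner-normalised scans of fluorescent anti-GST signal were the basis for scoring. That signal came from GST-tagged yeast transcription factors applied at about 100-200 nM to double-stranded universal all-10-mer Agilent arrays on fresh or once-stripped slides. Each ungapped eight-base word, pooled with its reverse complement, received an E-score from the Universal PBM Analysis Suite.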

| Sequence | PBM E-score |
| --- | --- |
| AGTGCGAA | -0.052 |
| CTAGCCAA | 0.066 |
| CGTACCCA | -0.0505 |
| TACGTTAA | -0.103 |
| AGAATCTC | -0.0155 |
| GTTGGAAA | -0.188 |
| ATTACGGC | -0.101 |
| GCTCATTA | -0.044 |
| GGTATACA | -0.0154 |
| CCGGCCCG | -0.131 |
| ATAGGAAC | -0.175 |
| ATACCTTG | 0.1 |
| AAACAGAG | -0.00984 |
| AGGCATAT | -0.127 |
| ACTGCAGG | -0.0274 |
| GGGTTCCA | -0.205 |
| CTTCAAGC | 0.0604 |
| GTGCTATA | -0.0444 |
| GAGCCCTC | -0.172 |
| CAGAGTTA | 0.0676 |
| CCACCCGA | 0.00066 |
| ACGATTGA | 0.216 |

| Sequence | PBM E-score |
| --- | --- |
| CGACCGTA | -0.147 |
| CCCATGGA | 0.0553 |
| CATTGAAA | 0.0309 |
| ATTCATGG | 0.224 |
| AGCTGTAC | -0.207 |
| GCCGCTAA | -0.273 |
| CGCCAAGA | -0.00635 |
| ATACATGA | 0.159 |
| ACCTGCAA | 0.0126 |
| CAATTCTA | 0.0238 |
| AATAGGTA | -0.0576 |
| AAGTTCTA | -0.00496 |
| CGACCTTA | -0.105 |
| CGGTGGCA | -0.281 |
| TTATTGAA | 0.143 |
| AAAACCAT | 0.104 |
| AGATGTGC | -0.0118 |
| AGCACCAG | -0.161 |
| GCACCACA | -0.266 |
| TAACGAGA | 0.00472 |
| CCGCCTCC | -0.273 |
| AACTTACT | 0.12 |

| Sequence | PBM E-score |
| --- | --- |
| GGAATGCC | -0.278 |
| ACGCCAGG | 0.0901 |
| CCGATGTC | -0.0998 |
| CAGCTAAC | -0.13 |
| TCATCTCA | 0.246 |
| ATATCTTA | 0.0774 |
| ACACTGGG | -0.238 |
| GCCGGCAA | -0.269 |
| ACCTAGGA | 0.0485 |
| CTATTGTA | 0.12 |
| AAAGGGAG | -0.123 |
| CGCTTGTA | -0.187 |
| CTTTGTTC | -0.0786 |
| AATACGGA | -0.129 |
| GGCGCCTA | -0.151 |
| AACGAGAG | -0.0209 |
| TAGAGCTA | -0.198 |
| ATGGTACG | -0.0676 |
| GGTCTCAC | 0.0207 |
| AAGGGTGT | -0.00845 |
| AGATTAAT | 0.226 |
| CCCACGGA | -0.156 |

| Sequence | PBM E-score |
| --- | --- |
| ATGCACAC | 0.0372 |
| AATTCGTG | 0.0735 |
| CCTTGCTC | -0.154 |
| CAAAGCGA | 0.0499 |
| CATGATAG | 0.00532 |
| CGAACTTC | -0.0141 |
| CTAAGCGC | -0.114 |
| CAGCCTGC | -0.256 |
| AAGGACGG | -0.168 |
| ACAAGCAA | 0.0262 |
| CCGTTCCG | -0.0781 |
| CGATGTAC | -0.0701 |
| ACCCGCCA | -2e-05 |
| AGACCCAG | -0.0607 |
| GTCTACAA | 0.127 |
| ACCCCAGA | -0.0636 |
| AGCTGCCG | -0.0915 |
| GAATAATC | 0.251 |
| CTCGGACC | -0.00324 |
| CAGATTAA | 0.183 |
